According to PubChem BioAssay AID504832 (National Center for Advancing Translational Sciences (NCATS), 2011):
Among all 310,000 compounds or so, about 18,000 (5.8%) were called active. Inconclusive means that the source gave no clear call. Such entries were picked first, then a sample of the others. The call rests on the fitted dose curve; in most records, active means well fitted inhibition curve with a large enough effect; inconclusive means small, poorly fitted or top-dose-only effect, or another doubt; inactive means no such curve, though single readings can be large or run the other way. No potency is given beside an inconclusive call; the fits are too rough.

Experiment: Primary qHTS for delayed death inhibitors of the malarial parasite plastid, 48 hour incubation
Settings: P. falciparum luciferase growth in erythrocytes; series mostly up to 28.7 µM; activity change, negative = inhibition: at the top concentration
Procedure, shortened: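 Growth was read as firefly luciferase luminescence after a 48 h, 37 C, 5% CO2 exposure of compounds to reporter-bearing P. falciparum cultures (0.1% parasitemia, 2% hematocrit final) in Albumax-supplemented RPMI 1640.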
On the % scale 0 is the no-effect control and ±100 the full control effect; potency means the concentration at half of the fitted maximal effect; tags describe the fitted curve by direction and shape.

Structure (SMILES)	activity change, negative = inhibition	Potency
c1ccc2c(c1)OCC(CN1CCCCC1)O2 (stereo not given)	inactive: -2.59%	–
O=C(Nc1cccnc1Cl)c1noc2c1CCc1ccccc1-2	inactive: 396%	–
Cc1nc(Cl)sc1C(=O)Nc1ccccc1	inactive: 0.85%	–
CC(C)CNc1nc(N)c([N+](=O)[O-])c(NCc2ccccc2)n1	–	inconclusive [inhibitor, partial curve, poor fit]
O=c1[nH]c(=O)n(Cc2ccco2)c2c1C(C(F)(F)F)(C(F)(F)F)N=C(CCC1CCCCC1)N2	–	inconclusive [inhibitor, partial curve]
Cc1cc(C)cc(NC(=O)C2C3C=CC4(O3)C2C(=O)N(CCCN2CCCCC2)C4C(=O)NC2CCCCC2)c1 (stereo not given)	–	inconclusive [inhibitor, single point]
COc1ccccc1N1CCN(C(=O)COc2ccc(S(=O)(=O)NC(C)(C)C)cc2)CC1	–	inconclusive [inhibitor, full curve, poor fit]
CCc1ccccc1NC(=O)CN(C)C(=O)CSc1nnc(Nc2cccc(C)c2C)s1	–	inconclusive [inhibitor, partial curve, poor fit]
COc1ccc(NC(=S)Nc2cccc3ccccc23)cc1OC	–	inconclusive [inhibitor, single point]
COc1ccc(-n2c(C)cc(C(=O)CN3C(=O)C(=O)N(Cc4ccccc4)C3=O)c2C)cc1	–	inconclusive [inhibitor, single point]
COC(=O)c1sc2ccccc2c1-n1cccc1C(=O)C(=O)Nc1ccc(F)cc1	–	inconclusive [inhibitor, single point]
CSc1ccccc1-n1nnnc1SCC(=O)Nc1cc(C)ccc1C	–	inconclusive [inhibitor, single point]
COc1cc(/C=C(\C#N)c2nnc(N3CCOCC3)n2-c2ccccc2)ccc1O	–	inconclusive [inhibitor, partial curve, poor fit]
COC(=O)Cn1ncc2c3ccccc3n(C)c2c1=O	inactive: 37.6%	–
O=C(Nc1ccc(S(=O)(=O)N2CCOCC2)cc1)c1nn(-c2ccc(F)cc2)ccc1=O	–	inconclusive [inhibitor, single point]
COc1cc(S(=O)(=O)N(Cc2ccco2)C2CCCC2)ccc1-n1cnnn1	–	inconclusive [inhibitor, partial curve, poor fit]
Cc1ccc(-n2c(C)cc(C=C(C#N)C#N)c2C)cc1	–	inconclusive [inhibitor, partial curve]
CCCCSCCCNC(=O)CS(=O)Cc1nc(-c2cccc(C)c2)oc1C (stereo not given)	inactive: 24.3%	–
Cc1ccsc1C(=O)Nc1nnc(-c2ccco2)o1	–	inconclusive [inhibitor, partial curve]
CCOc1cccc(NCc2cc3c(C(C)(C)C)nn(-c4ccccc4)c3[nH]c2=O)c1	–	inconclusive [inhibitor, single point]
COc1cc2c(cc1OC)C(COc1ccc(C(C)C)cc1)NCC2 (stereo not given)	–	inconclusive [inhibitor, single point]
CC(C#N)Sc1ncnc2sc3c(c12)CCC3 (stereo not given)	inactive: -21.6%	–
N/C(=N\OC(=O)c1cccc(Cn2cc(C(F)(F)F)ccc2=O)c1)c1ccccc1	–	inconclusive [inhibitor, partial curve, poor fit]

Structure (SMILES)	activity change, negative = inhibition	Potency
COc1ccc(OC)c(S(=O)(=O)NCc2cn3cccc(C)c3n2)c1	inactive: -12.8%	–
COc1cc2nc(Nc3cccc(F)c3)nc(N)c2cc1OC	–	active: 0.415 µM
Cc1nc([N+](=O)[O-])cn1CC(O)c1ccc(-c2ccccc2)cc1 (stereo not given)	–	inconclusive [inhibitor, single point]
CN(C)CCC[C@]1(c2ccc(F)cc2)OCc2cc(C#N)ccc21	–	inconclusive [inhibitor, single point]
COc1cccc(-c2c(C(=O)N/N=C(\C)COc3ccccc3)nnn2-c2nonc2N)c1	inactive: 3.81%	–
CCc1ccc(Oc2nc([N+](=O)[O-])nn2C)cc1	–	inconclusive [inhibitor, full curve]
COc1ccc(/C=C/C(=O)Nc2ccccc2C(F)(F)F)cc1	inactive: 73.9%	–
CC[C@@H]1CC=C[C@H]2[C@H]1C(=O)N(Cc1ccccc1)[C@H]2c1ccoc1	–	active: 11.7 µM
c1ccc(SCc2nc(-c3cccnc3)no2)cc1	inactive: -49.9%	–
COc1cc(NC(=O)C2C3C=CC(C3)C2C(=O)O)ccc1NC(=O)c1ccccc1 (stereo not given)	inactive: 22.4%	–
Cn1c(=O)c2c(nc(N/N=C/c3cccs3)n2Cc2ccccc2)n(C)c1=O	–	inconclusive [inhibitor, single point]
O=C(Nc1ccc(Cl)cc1)NC1CCCC1Cc1ccco1 (stereo not given)	–	active: 10.4 µM
N/C(CS(=O)(=O)c1ccc(F)cc1)=N\O	–	inconclusive [inhibitor, full curve, poor fit]
CC(=O)C1=C(O)C(=O)N(c2cccc(Br)c2)C1c1ccc(Br)cc1 (stereo not given)	inactive: 14%	–
CC1=C(C#N)C(c2ccccc2)C2=C(N1)c1ccccc1C2=O (stereo not given)	–	inconclusive [inhibitor, single point]
COc1ccc(Cl)cc1Nc1nc(-c2cccnc2)cs1	–	inconclusive [inhibitor, partial curve]
CCOC(=O)C1CCCN(C(=O)c2ccc(Cl)c(S(=O)(=O)N3CCCCC3)c2)C1 (stereo not given)	inactive: -14.6%	–
Cc1ccc(C(=O)NCC(=O)NCC(c2ccco2)N2CCCCC2)cc1C (stereo not given)	–	inconclusive [inhibitor, single point]
O=C(Oc1ccc(F)cc1)N1CCOCC1	inactive: 1.01%	–
Cc1ccc(C(=O)N2CC=C(c3ccccc3)CC2)s1	–	active: 10.4 µM
NC(=O)CCCn1c(C(=O)c2ccc(Cl)cc2)c2ccc(C(F)(F)F)cc2[n+]1[O-]	–	inconclusive [inhibitor, single point]
COC(=O)CCC(=O)OC1(C)C(=O)C2=CN(CC(C)C)C(c3ccc(OC)cc3)=CC2=C(Br)C1=O (stereo not given)	–	inconclusive [inhibitor, partial curve]
